“And” between values parts separate entries of the source, which are not always exact repeats. Equal values may be shown once. Screen size: about 420,000 compounds; about 50,000 (12%) were called active. Inconclusive results, whose numbers are uncertain, are shown with a selection of clear calls. The call rests on the fitted dose curve; in most records, active means well fitted inhibition curve with a large enough effect; inconclusive means small, poorly fitted or top-dose-only effect; inactive means flat fitted curve, though single readings scatter. A potency beside an inconclusive call is a rough fit, not a confirmed value.
assay: qHTS for Inhibitors of human tyrosyl-DNA phosphodiesterase 1 (TDP1): qHTS in cells in presence of CPT; conditions: chicken DT40 Tdp1-/-;hTDP1 cells + 20 nM CPT, ATP luminescence, 48 h; activity change, negative = growth inhibition: at 46.2 µM (top of the series); further: nearly all actives have a fitted effect of over 55% in size
Summary of the method: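 Cell growth measured by CellTiter-Glo luminescence after a minimum 48 h, 37 C compound exposure with 20 nM CPT in Tdp1-knockout DT40 cells stably expressing hTDP1, seeded 400/well; qHTS titration format.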
On the % scale 0 is the no-effect control and ±100 the full control effect; potency means the concentration at half of the fitted maximal effect; tags describe the fitted curve by direction and shape.

Compound | Potency | activity change, negative = growth inhibition
Fc1ccc(-c2nc3ccccn3c2NCc2ccc3c(c2)OCO3)cc1 | inconclusive: 29.1 µM [inhibitor, single point] | –
Cc1cccc(NC(=O)Cc2ccc(NC3=NC4CS(=O)(=O)CC4S3)cc2)c1 (stereo not given) | – | inactive: 20.9%
Cc1cnc(/C=C/c2ccc(N(C)C)cc2)cn1 | active: 3.16 µM | –
CCCCc1nn(-c2cc(Cl)ccc2OC)c2c1C(=O)CCC2 | inconclusive: 14.6 µM [inhibitor, partial curve, poor fit] | –
CCC1(CC)C(=O)C(C)(C)C(=O)OC1c1ccccn1 (stereo not given) | inconclusive: 29.1 µM [inhibitor, single point] | –
CCOC(=O)c1c(C)[nH]c(C)c1S(=O)(=O)N1CCCC(C(=O)NCc2ccccc2Cl)C1 (stereo not given) | inconclusive: 29.1 µM [inhibitor, single point] | –
c1ccc(CNc2c(-c3cccc(SC4CCCCC4)c3)nc3ccccn23)cc1 | inconclusive: 37.2 µM [inhibitor, single point] and inconclusive: 23.1 µM [inhibitor, single point] | –
O=C(Nc1ccn(CCCNCC2CCCCC2)c(=O)n1)OCc1ccccc1 | inconclusive: 23.1 µM [inhibitor, single point] | –
Cc1ccc(O)c(N=Cc2cc(Cc3ccccc3)cc([N+](=O)[O-])c2O)c1 | inconclusive: 29.1 µM [inhibitor, single point] | –
COC(=O)N1C2CCCCC2=NN(c2ccccc2)N1C(=O)OC (stereo not given) | – | inactive: -12.2%
CCN1CCC(NC(=O)Nc2cc(Cl)ccc2OC)CC1 | – | inactive: -3.54%
CCN(CC)C(=O)CC(c1ccc(OC)cc1)c1c(OC)cc(OC)c2ccc(=O)oc12 (stereo not given) | active: 23.1 µM | –
CC(Sc1nc(-c2ccccc2)cc(C(F)(F)F)n1)C(=O)O (stereo not given) | inconclusive: 29.1 µM [inhibitor, single point] | –
CC(C)C[C@@H]1Cc2[nH][nH]c(=O)c2[C@H](C(C)C)O1 | – | inconclusive: -35.9% [inhibitor]
COc1ccc2[nH]c(=O)c(-c3nnn(-c4ccc(F)cc4)n3)cc2c1 | active: 4.61 µM | –
Cc1ccc2oc(-c3cc(NC(=O)CC(C)C)ccc3Cl)nc2c1 | active: 10.3 µM | –
CCCc1cc(=O)oc2c(C)c3c(cc12)CN(CCc1ccc(Cl)cc1)CO3 | active: 6.51 µM | –
CC(NC(=O)COc1ccc(S(=O)(=O)N2CCCC2)cc1)c1ccccc1 (stereo not given) | – | inactive: 9.08%
O=C(c1ccc(Cl)cc1)C1CCN(C(=O)NC2CCCCC2)CC1 | inconclusive: 18.4 µM [inhibitor, single point] | –
c1csc(-c2nc(NCC3CCCO3)c3ccccc3n2)c1 (stereo not given) | inconclusive: 18.4 µM [inhibitor, single point] and inconclusive: 10 µM [inhibitor, partial curve] | –
COc1cc(C(=O)NNC(=O)C2CCC2)cc(OC)c1OC | – | inactive: -10.5%
CCN(CC)CCN1CCN(c2cncc(-c3ccc4ccccc4c3)n2)CC1 | active: 11.6 µM | –
C=CCNC(=O)CSc1nc2sc(C)c(C)c2c(=O)[nH]1 | inconclusive: 9.2 µM [inhibitor, partial curve] | –
CC(NC(=O)Cn1cccc1C(=O)c1ccccc1)c1ccc2c(c1)OCCO2 (stereo not given) | – | inactive: -19%

Compound | Potency | activity change, negative = growth inhibition
COc1ccc(CNc2ccc3c(c2)ncn3C)cc1OC | inconclusive: 23.1 µM [inhibitor, single point] | –
COCC(C)NC(=O)CSc1nc2ccccc2n1CCc1ccccc1 (stereo not given) | inconclusive: 29.1 µM [inhibitor, single point] | –
CCc1noc(C)c1C(=O)Nc1ccc(S(=O)(=O)N2CCCC(C)C2)cc1 (stereo not given) | inconclusive: 20.6 µM [inhibitor, single point] | –
C#CCOc1ccc(Cl)cc1/C=C1/C(=O)ON=C1C | active: 23.1 µM | –
O=C(c1ccc(F)cc1)c1ccc(N2CCCCC2)cc1 | inconclusive: 23.1 µM [inhibitor, single point] | –
Cc1ccc2c(c1)Cc1c(nc(-c3ccc(F)cc3)nc1SCC(=O)N1CCCCC1)O2 | – | inactive: 6.12%
NS(=O)(=O)c1ccc(CCNC(=O)c2cc(-c3ccc(Br)cc3)nc3ccccc23)cc1 | active: 9.2 µM | –
CCOc1ccc(NC(=O)C2C(c3ccccc3)C2(Cl)Cl)cc1 (stereo not given) | inconclusive: 29.1 µM [inhibitor, partial curve, poor fit] | –
Cc1ccc(CCNC(=O)c2cc(S(=O)(=O)N3CCCCC3)c[nH]2)cc1 | – | inactive: -10.9%
COc1ccc(C(=O)Oc2cc3c4c(c2)C(C)=CC(C)(C)N4C(=O)C3=O)cc1OC | active: 4.61 µM | –
COc1ccc(NS(=O)(=O)c2ccc3nc(COc4ccc(Cl)c(C)c4)[nH]c3c2)cc1 | inconclusive: 29.1 µM [inhibitor, single point] | –
COc1cc2nc3n(c(=O)c2cc1OC)-c1cc2ccccc2cc1C(=O)NC3CC(C)C (stereo not given) | inconclusive: 18.4 µM [inhibitor, single point] | –
O=[N+]([O-])c1ccc(-c2nn(-c3ccccc3)cc2/C=N/n2c(-c3ccncc3)n[nH]c2=S)cc1 | inconclusive: 29.1 µM [inhibitor, single point] | –
C/C=C/C(=O)OCC(=O)Nc1cc(-c2cc(C)c(C)cc2C)nn1-c1ccccc1 | – | inactive: -26.2%
CCC(=O)NC(=S)Nc1ccc(OC)cc1OC | inconclusive: 2.59 µM [inhibitor, partial curve] | –
O=C(CSc1nnnn1C1CCCC1)Nc1ccc2c(c1)OCCO2 | inconclusive: 25.9 µM [inhibitor, single point] | –
CC(C)n1cnc2c(Nc3cccc(Cl)c3)nc(NCCCO)nc21 | active: 20.6 µM | –
O=C(C[C@H]1C[C@H](C(=O)N2CCOCC2)[C@@]2(CCC3CCCC3)c3[nH]c4cc(-c5ccco5)ccc4c3CCN2C1=O)NCc1cccc(C(F)(F)F)c1 | active: 16.4 µM | –
N#CC(c1ccc(Cl)cc1)c1ccc2c(C(F)(F)F)cc(C(F)(F)F)nc2n1 (stereo not given) | active: 0.651 µM | –
CC1(C(=O)NS(=O)(=O)c2cccc(C#N)c2)CCN1C(=O)CC1CCCC1 (stereo not given) | – | inactive: 3.72%
CC(NC(=O)CN(C)CC(=O)Nc1ccc(F)c(F)c1F)c1ccccc1 (stereo not given) | – | inconclusive: -14.6% [inhibitor]
O=c1[nH]c(C2CCN(S(=O)(=O)Cc3ccccc3)CC2)nc2c1nnn2Cc1ccccc1Cl | inconclusive: 29.1 µM [inhibitor, single point] | –
O=c1c(-c2ccc(Cl)cc2)coc2c(CN3CCCCC3)c(O)ccc12 | – | inactive: -1.16%
COc1ccc(C2C3CCCCC3(O)CCN2C(=O)c2cccs2)cc1 (stereo not given) | – | inactive: 0.183%

Compound | Potency | activity change, negative = growth inhibition
O=C(Nc1ccc(S(=O)(=O)N2CCCC2)cc1)c1ccc(CN2CCOCC2)cc1 | inconclusive: 23.1 µM [inhibitor, single point] | –
COCC(=O)N1CCC(Oc2ccc(C(=O)NC(C)c3nc(C)sc3C)cc2)CC1 (stereo not given) | – | inactive: -0.414%
Cc1cc(NC(=O)CSc2nc3cc4c(cc3c(=O)n2CCc2ccccc2)OCO4)no1 | inconclusive: 29.1 µM [inhibitor, single point] | –
O=C(CNC(=O)c1ccc2c(c1)OCCO2)N/N=C/c1cccc(Br)c1 | – | inactive: -21.2%
COc1cccc(Nc2nc3ccccc3nc2NS(=O)(=O)c2cccs2)c1 | active: 9.2 µM | –
COc1ccc(/C=C/C(=O)NC(=S)NNC(=O)c2cccs2)cc1OC | inconclusive: 29.1 µM [inhibitor, single point] | –
COC(=O)[C@@]12C[C@@H](CC(=O)N3CCSCC3)C(=O)N(Cc3cccc4ccccc34)C1=CCC(C)(C)C2 | inconclusive: 29.1 µM [inhibitor, single point] | –
COc1ccc(-c2c(C)[nH]n3c(=O)c(Cc4ccccc4)c(C)nc23)cc1OC | inconclusive: 29.1 µM [inhibitor, single point] | –
O=C(Cc1ccc(F)cc1)N1CCC(CC2CC(c3ccc(Cl)cc3)=NO2)(C(=O)NCC2CCCCC2)CC1 (stereo not given) | inconclusive: 29.1 µM [inhibitor, single point] | –
COc1cccc([C@@H]2Oc3ccc(Br)cc3C(=O)[C@H]2OC(=O)NC2CCCC2)c1 | inconclusive: 29.1 µM [inhibitor, single point] | –
CCN(C[C@H]1N[C@@](CC)(C(=O)OC)[C@H]2C(=O)N(C)C(=O)[C@@H]12)C(=O)COC | – | inactive: 1.33%
O=C(CCl)N1N=C(c2cccs2)CC1c1ccco1 (stereo not given) | active: 2.91 µM | –
Cc1cccc(OCC(=O)Nc2ccc3c(c2)nc(CN2CCCCC2)n3C)c1 | inconclusive: 29.1 µM [inhibitor, single point] | –
COC(=O)c1ccc2c(=O)n(Cc3ccc(C(=O)NC(C)C)cc3)c(=S)[nH]c2c1 | inconclusive: 16.4 µM [inhibitor, single point] | –
O=C(Cc1ccccc1)NNC(=S)Nc1ccccc1 | – | inactive: -10.2%
CC(C)c1ccc(NC(=O)C2CCCN2S(=O)(=O)c2ccc3nc(-c4ccccc4)[nH]c3c2)cc1 (stereo not given) | active: 10.3 µM | –
CC(=O)N1CCc2cc(S(=O)(=O)NCC(=O)NCc3ccccc3Cl)ccc21 | – | inactive: -22.1%
COc1ccccc1C(CNC(=O)C(C)(C)Oc1ccc(Cl)cc1)N1CCCC1 (stereo not given) | inconclusive: 29.1 µM [inhibitor, single point] | –
COc1cc2ncnc(NCc3cccc(F)c3F)c2cc1OC | inconclusive: 20.6 µM [inhibitor, single point] | –
O=C(CCS(=O)(=O)c1ccccc1Cl)NC1CCCCCC1 | – | inactive: 2.75%
Cc1ccc(-n2ncc3c(N4CCN(Cc5ccccc5)CC4)ncnc32)cc1Cl | active: 8.2 µM | –
COc1cc2c(c(OCC(=O)NC(C)C)c1)C(=O)O[C@@H](C)CCCC(=O)CCCCC2 | inconclusive: 23.1 µM [inhibitor, single point] | –

Source: PubChem BioAssay AID686979 (National Center for Advancing Translational Sciences (NCATS), 2013)
